The whole screen tested about 420,000 compounds, of which about 50,000 (12%) were called active. Inconclusive means that the source gave no clear call. Such entries were picked first, then a sample of the others. The call rests on the fitted dose curve; in most records, active means well fitted inhibition curve with a large enough effect; inconclusive means small, poorly fitted or top-dose-only effect; inactive means flat fitted curve, though single readings scatter. Potencies of inconclusive entries are left out as doubtful fits.
Experiment: qHTS for Inhibitors of human tyrosyl-DNA phosphodiesterase 1 (TDP1): qHTS in cells in presence of CPT; further: nearly all actives have a fitted effect of over 55% in size
Conditions: chicken DT40 Tdp1-/-;hTDP1 cells + 20 nM CPT, ATP luminescence, 48 h; activity change, negative = growth inhibition: at 46.2 µM (top of the series) unless noted
Method in brief: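 Chicken DT40 Tdp1-/- cells complemented with human TDP1, 400 cells/well, exposed to compounds plus 20 nM camptothecin for at least 48 h at 37 C; viability read as ATP content by CellTiter-Glo luminescence.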
On the % scale 0 is the no-effect control and ±100 the full control effect; potency means the concentration at half of the fitted maximal effect; tags describe the fitted curve by direction and shape.

Compound | Potency | activity change, negative = growth inhibition
CCOc1ccc(NC(C)=O)cc1 | inconclusive [inhibitor, single point] | 
COc1cccc(C2=C(C(C)=O)Sc3nnc(C4CCCCC4)n3N2C(C)=O)c1 | active: 7.31 µM | 
CCc1nnc(SCC(=O)Nc2nccs2)n1CC | inactive | 
CCOc1ccccc1CNC(=O)c1cn(-c2ccc(OC)cc2)c(=O)c2ccccc12 | inconclusive [inhibitor, single point] | 
COc1ccc(-c2cn3cccnc3n2)cc1NC(=O)CC(C)C | inactive | 
O=C(Nc1ccccc1)N(Cc1ccccc1)CC(O)C(F)(F)F (configuration not stated) | inactive | 
CC/C(=N\Nc1ccnc2cc(Cl)ccc12)c1ccc(O)cc1 | inconclusive [inhibitor, single point] | 
COC(=O)c1ccc(CNC(=O)CSc2nc3ccccc3[nH]2)cc1 | inactive | 
O=C1CCC[C@H]2c3[nH]c4ccccc4c3CCN12 |  | inconclusive: -14.7% [inhibitor]
Cc1cc(Br)cn2c(Cc3ccsc3)c(-c3ccccc3)nc12 | inconclusive [inhibitor, single point] | 
CS(=O)(=O)N(Cc1ccc(Cl)cc1)c1ccc(C(=O)N/N=C/c2cc3ccccc3nc2Cl)cc1 | inconclusive [inhibitor, single point] | 
CCO[C@@H]1OC(C(=O)O)=C[C@H](C2CCCCC2)[C@H]1CCCO | inactive | 
CN(C(=O)COC(=O)c1cccs1)c1ccccc1 | inactive | 
CC1(C)Cc2c(C#N)c(NCC3CCCO3)nc(-c3ccco3)c2CO1 (configuration not stated) | inconclusive [inhibitor, single point] | 
COc1ccc(C(=O)N2CCCCC2c2cc(C(=O)NCc3ccc(Cl)c(Cl)c3)no2)cc1 (configuration not stated) | inconclusive [inhibitor, single point] | 
CCO[C@@H]1OC(C(=O)NCc2nc3ccccc3[nH]2)=C[C@H](c2csc3ccccc23)[C@H]1CCCO | active: 23.1 µM | 
CCOC(=O)C(c1ccccc1)C(Nc1cc(C(F)(F)F)cc(C(F)(F)F)c1)c1ccccn1 (configuration not stated) | inactive | 
COc1ccc(N(C)S(=O)(=O)c2ccc3c(c2)NC(=O)CC(=O)N3)c(OC)c1 | inactive | 
CCCCCCP(=O)(O)c1ccccc1 | inactive | 
Clc1cccc[n+]1CCCCCC[n+]1ccccc1Cl | active: 35.5 µM | 
CCOc1ccc(N(Cc2cc3cc(OC)ccc3[nH]c2=O)C(=O)C2CCCO2)cc1 (configuration not stated) | inconclusive [inhibitor, single point] | 
CCOc1ccc(NC(=O)[C@H]2O[C@@H]3OC(C)(C)O[C@@H]3[C@H]3OC(C)(C)O[C@H]32)cc1 | inconclusive [inhibitor, single point] | 
COc1ccc(NC(=O)c2oc3ccccc3c2NC(=O)C(C)(C)C)cc1 | inconclusive [inhibitor, single point] | 
COCC1CCCCN1C(=O)c1ccc2nc(Cc3ccc(OC)c(OC)c3)oc2c1 (configuration not stated) | active: 11.6 µM | 

Compound | Potency | activity change, negative = growth inhibition
CCN(CC)S(=O)(=O)c1ccc(Nc2nc3ccccc3n3nnnc23)cc1 | active: 23.1 µM | 
CC(=O)Nc1ccc(NC(=O)CSc2nnc(C)c(=O)n2N)cc1 |  | inconclusive: -31.5% [inhibitor]
N#C/C(=C\c1cc([N+](=O)[O-])c(N2CCOCC2)cc1N1CCOCC1)c1nc2ccccc2[nH]1 | inconclusive [inhibitor, single point] | 
CCc1nn(CC(=O)NCc2ccccc2Cl)c(=O)c2cc3ccccc3n12 | inconclusive [inhibitor, single point] | 
CCOC(=O)N1CCc2c(sc(NC(=O)C3COc4ccccc4O3)c2C(N)=O)C1 (configuration not stated) | inconclusive [inhibitor, single point] | 
COC(=O)Cc1c(C)c2ccc(OCC(=O)N3CCC(C)CC3)c(C)c2oc1=O | active: 13 µM | 
O=c1c(N2CCN(c3cccc(Cl)c3)CC2)csc2ccccc12 | inconclusive [inhibitor, single point] | 
COc1ccc(C(=O)OCC(=O)c2ccc(CNC(C)=O)s2)cc1 | inactive | 
COc1ccc(-c2nc(N3CCN(C)CC3)sc2-c2ccc(OC)cc2)cc1 | inconclusive [inhibitor, partial curve] | 
COc1ccccc1-c1cc(C(F)(F)F)nc(N2CCN(c3ccc(F)cc3)CC2)n1 | inconclusive [inhibitor, partial curve] | 
COc1cccc(C(=O)OC(C)C(=O)Nc2ccc3c(c2)OCO3)c1 (configuration not stated) | active: 13 µM | 
O=C(COC(=O)/C=C/c1ccc(C(F)(F)F)cc1)NCC1CCCCC1 | inconclusive [inhibitor, single point] | 
CCc1ccc(Oc2c(C(F)(F)F)oc3c(CN4CCN(CC)CC4)c(O)ccc3c2=O)cc1 | inconclusive [inhibitor, single point] | 
CC(C)(C)c1ccc(/C=C/C(=O)Nc2nncs2)cc1 | inconclusive [inhibitor, single point] | 
CC1CCCCN1CCCNC(=O)c1ccc2c(c1)sc1nc(-c3ccc(F)cc3)cn12 (configuration not stated) | active: 2.31 µM | 
COc1ccc(NC(=O)c2cc(F)cc(F)c2)cc1Cl | inactive | 
O=C(Nc1nc2ccc(S(=O)(=O)N3CCCC3)cc2s1)c1ccc(F)cc1 | inconclusive [inhibitor, single point] | 
N#Cc1c2nc3ccccc3nc2n2cc(NC(=O)c3ccc(F)cc3)ccc12 | active: 4.11 µM | 
COc1ccc(/C=C/c2nnc(NC(=O)COc3ccc(Cl)cc3)s2)cc1 | inconclusive [inhibitor, single point] | 
Nc1ccc(S(=O)(=O)N2CCC(Cc3ccccc3)CC2)cc1 | inconclusive [inhibitor, partial curve, poor fit] | 
CN(Cc1cn(C)nc1-c1ccccc1F)CC1CCCCO1 (configuration not stated) | inactive | 
CCOc1ccccc1C(=O)Nc1cc(Cl)ccc1O | inconclusive [inhibitor, single point] | 
O=C(NNC(=S)NC(=O)c1cccnc1)c1ccccc1 | inconclusive [inhibitor, single point] | 
N#CC1=C(N)Oc2n[nH]c(-c3cccs3)c2C1c1cccs1 (configuration not stated) | inconclusive [inhibitor, single point] | 

Compound | Potency | activity change, negative = growth inhibition
COc1ccc(N/C=C/C(=O)c2sc(-c3ccccc3)nc2C)cc1 | active: 16.4 µM | 
COC(=O)c1cccc(S(=O)(=O)N2CCC(NC(=O)NC34CC5CC(CC(C5)C3)C4)CC2)c1 | active: 23.1 µM | 
Nc1cc(=O)[nH]c(SCC(=O)NNC(=O)c2ccccc2)n1 | inactive | 
O=C(O)c1oc2ccccc2c1CN1CCN(c2ccccc2)CC1 | inactive | 
CCOC(=O)N1CCc2c(sc3c2c(=O)n(-c2ccc(Cl)cc2)c(=O)n3Cc2cccc(OC)c2)C1 | inconclusive [inhibitor, single point] | 
COc1ccc(OC)c(C2=Nn3c(nnc3-c3cc(OC)c(OC)c(OC)c3)SC2)c1 | active: 20.6 µM | 
CN(C)CC(C)(C)CNC(=O)C1CCN(CCCc2ccccc2)CC1 | inconclusive [inhibitor, single point] | 
O=C(Nc1cc(C(F)(F)F)ccc1N1CCCCC1)c1ccc(Br)o1 | active: 18.4 µM | 
CCn1cc(C(=O)N[C@H](C)c2ccccc2)c(=O)c2cc(F)c(N3CCN(C)CC3)cc21 | inconclusive [inhibitor, single point] | 
Cc1ccc(-c2nc(CN(C)Cc3cccc4cnccc34)c(C)o2)s1 | inconclusive [inhibitor, single point] | 
O=c1oc2ccccc2c(N2CCOCC2)c1[N+](=O)[O-] | inconclusive [inhibitor, single point] | 
CC(=O)c1c(C)[nH]c(C(=O)CSc2nc3ccccc3c(=O)n2CCCO)c1C | inconclusive [inhibitor, partial curve] | 
O=Cc1ccc(-c2ccc([N+](=O)[O-])cc2Cl)o1 | inconclusive [inhibitor, single point] | 
COCCCNC(=O)c1ccc(Cn2c(=O)c3ccccc3n(CC(=O)Nc3ccc(C)cc3C)c2=O)cc1 | inactive | 
CCOC(=O)C1CCCN(S(=O)(=O)c2cc(Br)cc3c2N(C(=O)C2CC2)CC3)C1 (configuration not stated) | inconclusive [inhibitor, single point] | 
O=C(O)c1ccc(CN(Cc2ccccc2)S(=O)(=O)c2ccc(Cl)cc2)cc1 | inconclusive [inhibitor, single point] | 
CCCCSc1nc2c(c(=O)[nH]c(=O)n2C)n1CCc1ccccc1 | inconclusive [inhibitor, single point] | 
COc1ccc(-c2nc3nc(C)cc(N4CCN(c5cccc(C(F)(F)F)c5)CC4)n3n2)cc1 | inconclusive [inhibitor, partial curve] | 
Cn1cc(SCC(=O)NC2CCCCC2)c2ccccc21 | inactive | 
Cc1ccc(CN2CCN(/N=C\c3cccc([N+](=O)[O-])c3)CC2)cc1 | inactive | 
COc1cccc(OC2(C)CCN(Cc3cccn3-c3nccs3)C2)c1 (configuration not stated) | active: 23.1 µM | 
CCCCNC(=O)C(NC(=O)Cc1cc(C(F)(F)F)cc(C(F)(F)F)c1)C(=O)c1ccccc1 (configuration not stated) | active: 29.1 µM | 
COc1ccc(-c2nnc(SCC(=O)c3cccs3)o2)c(OC)c1 | inconclusive [inhibitor, partial curve] | 
Cc1ccc2cc(CCNC(=O)c3cccs3)c(=O)[nH]c2c1 | inactive | 

— PubChem BioAssay AID686979 (National Center for Advancing Translational Sciences (NCATS), 2013)
